Experimental data as given in the supplement of paper PMC11417369.
± gives the standard deviation of the averaged measurements. Some of the results follow.

tested on: PfAP2-EXP AP2 domain (GST-tagged); assay: gcPBM binding intensity (ln(normalized median fluorescence intensity)); higher = stronger DNA binding
In short: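 Plasmodium falciparum DNA-binding domains carrying a GST tag were expressed in E. coli and applied for 1 h, at about 25 μg on average, to an Agilent 4 × 180k array. The array held primer-extended double-stranded 36-bp intergenic genomic probes together with negative controls, and binding took place in 1× PBS with 1% milk, 0.2 mg/ml BSA, 0.5% salmon testes DNA and 0.03% Triton X-100. An Alexa488 anti-GST antibody detected bound protein, and the array was scanned at 488 nm. Binding intensity is taken as the highest Masliner-normalised natural-log median intensity across replicate spots of either probe orientation.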

Point of comparison: “ATTATAATGGTAAAGTGTACAAATTTTTATTACACC [XGTACX_site5274]”, “gcPBM binding intensity (ln)” value 8.64 ± 0.3. Against it:
- TGTCATAAAACCGTTTGTACATATTAATAGACACCT [XGTACX_site4520] — within error, 8.55 ± 0.38
- TTGTTATTCCACCGTTGTACAGTTATATACATACAC [XGTACX_site8296] — within error, 9.03 ± 0.36
- TCCATGCAGAAACACACACACAAAAAAAAATTCTTT [CACACA_site4099] — within error, 8.42 ± 0.65
- AAAAAAATTACATATCCATTTTAACATAATAAATAG [GTGCAC_negctrl_site618] — within error, 8.19 ± 0.25
- TTACGAATAAAACAGTGTACATTGAATTTCTATGAG [XGTACX_site4771] — within error, 8.48 ± 0.3
- TTTTTGCAAAAAGAAATAATTTTATTTTAGTTCGGA [CACACA_negctrl_site1718] — within error, 8.12 ± 0.45
- ATCTATGGGTAGTATACACACTGTATATTTAGGAAT [CACACA_site5569] — within error, 8.56 ± 0.47
- ATTCTATTCTCCTTCACACACAAAAATATTTCATCA [CACACA_site2360] — within error, 8.91 ± 0.45
- ATGCAATTATATAGTAGTACAAATTTATAAATATAC [XGTACX_site4869] — within error, 8.99 ± 0.38
- ATTATACACCCGCGCACACACAACAAAAAAAAAAAA [CACACA_site5871] — within error, 8.84 ± 0.26
- ATAATTGTTTAAAGGTGTACAATACATATATTTTAA [XGTACX_site3648] — within error, 8.35 ± 0.28
- TCATATATTATATATTGTACAAAATAATAAGTATTT [XGTACX_site3987] — within error, 8.32 ± 0.38
- ATATATATATATATGGGTACGTAAAAATATAATAAA [XGTACX_site4036] — higher, 10 ± 0.25
- TTTTCTTTCTTTCAAACACACATTAATTTTATTCAT [CACACA_site2734] — within error, 8.5 ± 0.51
- TAAAATTATTAATGAGTGCATTATAAAATCTATATA [GTGCAC_site9493] — within error, 8.57 ± 0.4
- GTTGTTATATAAAATTGTACATAAAAAACAAAATAT [XGTACX_site5313] — within error, 8.79 ± 0.42
- ATAAATGGCTATAGCATATTGTATATGTGATTATAA [CACACA_negctrl_site948] — within error, 8.46 ± 0.4
- TATATATATATATATTGTACTAAATCATTTAAATGA [XGTACX_site8016] — higher, 10 ± 0.3
- AAAAAACAAAAACACACGCACACAAAAAAAAAAAAA [CACACA_site802] — within error, 8.35 ± 0.53
- CACAAATATACAAATACACACAAATATACACATATA [CACACA_site7176] — within error, 8.51 ± 0.5
- ATGAAAATATTTAAAAGTACAGAAATATAAAACCTT [XGTACX_site403] — within error, 8.79 ± 0.51
- TATTTTATACACTTGCTAAAACATTAACACATATGT [CACACA_negctrl_site1818] — within error, 8.46 ± 0.47
- TATAAAATATAAATAAATAAATAAATATATATATAT [TGCATGCA_negctrl_site448] — higher, 9.78 ± 0.13
- AAAATATTTATCATTTGTACTTAGATGTAAACTTGA [XGTACX_site1778] — within error, 8.12 ± 0.38
- TTATTAAATTTTTTTTGTACTTATATATATATATAT [XGTACX_site2443] — higher, 10.1 ± 0.17
- ATTATTATATAGTGTGCATGCAATATTAATAAAACC [TGCATGCA_site245] — higher, 10.3 ± 0.4
- TATGAATGTATATGTTGTACATATAAATATTTATAT [XGTACX_site1146] — within error, 8.53 ± 0.46
- TAAGCTTGTAACAGTTTACACACTAATATTTATAAA [CACACA_site3907] — within error, 8.36 ± 0.47
- AATAAATATATTACATATATGTGTAGTATTTTTTTA [TGCATGCA_negctrl_site268] — within error, 8.21 ± 0.45
- ACACATATATATTATTATTATATAATATATATATAT [CACACA_negctrl_site1545] — higher, 9.21 ± 0.15
- ACATGTTTTATGTGCACACAAAGTTGTTATGAGGTT [CACACA_site4031] — within error, 9.38 ± 0.53
- ATATAATATTTCATGTGGACACATTTTATGATTGTA [XGTACX_site8770] — within error, 8.74 ± 0.38
- ATATATTATATATATTACAACTTAAGAATATACATA [TGCATGCA_negctrl_site371] — within error, 8.28 ± 0.54
- TCCTGTGATTATATAACACACATTATTGCTTATAAG [CACACA_site1518] — within error, 8.77 ± 0.56
- ATTGTTTATATTGATTGTACTCATTTTTTTTTTATT [XGTACX_site1946] — within error, 8.84 ± 0.39
- ATAGTAAACGAAATAAAAAGATTAGCATAATATCCT [CACACA_negctrl_site1730] — within error, 8.74 ± 0.38
- ATTATATATATATATACACACACACCCTAAAAATAT [CACACA_site8463] — within error, 8.94 ± 0.56
- ATATATTGAAAAAAATGTACGTATTTTTTTATGTTA [XGTACX_site4654] — within error, 8.41 ± 0.26
- AATCAAAATTAATTAACACACAATTTTAATATTCTT [CACACA_site2063] — within error, 8.13 ± 0.43
- TGTTTTTTGTTCTTTACAAAAAAAAAAAAAAAAAAA [GTGCAC_negctrl_site61] — within error, 7.96 ± 0.46
- TCTTGTATATACAGTAGTACTAAAAATTATTAAATA [XGTACX_site7896] — within error, 8.47 ± 0.34
- ACATACAAGAATTAAACACACACAAAATATAAATTC [CACACA_site8985] — within error, 8.81 ± 0.45
- GAAAACAAATATGTAGCACACATTCACATAATATAT [CACACA_site8731] — within error, 8.43 ± 0.45
- TTATGTTGTAAATGCACACATACAAATACAGATACA [CACACA_site4876] — within error, 8.71 ± 0.3
- ATAAATATAAAAATTTGTACATATATAGGTATAGGT [XGTACX_site1735] — within error, 8.9 ± 0.57
- TTATTTCAAATTAATTTACACACTTCATACTAAAAG [CACACA_site9039] — within error, 8.65 ± 0.43
- CATTATTTACCGCCGTGTACGTAATGAGAAATTAAA [XGTACX_site4662] — within error, 8.49 ± 0.39
- TAATAAAAAAAGTGCACACACATAATATTTATATAT [CACACA_site7548] — within error, 8.63 ± 0.24
- TTTATTTATTATTAAAGTACTAAATTACATTATTAT [XGTACX_site6624] — within error, 8.1 ± 0.28
- TATTTAATTACATGAACACACATTAGATATTTTTAA [CACACA_site7405] — within error, 8.14 ± 0.44
- AAAATAAATAGATAAGCACACAAGCATATAGACATA [CACACA_site7958] — within error, 8.7 ± 0.53
- TAATTTCTTATGTATTGTACATATAATATATGATAT [XGTACX_site4898] — within error, 8.52 ± 0.41
- AATATATTTATGCTCATGCACTTTTTTTTTTTTTTT [GTGCAC_site9654] — within error, 8.48 ± 0.28
- ATGTACATTTTTTTCACACATACATTAATTTATGAG [CACACA_site5801] — within error, 8.82 ± 0.44
- AGAATAAAAAGGAACACACACACACCCATATATATA [CACACA_site3590] — within error, 8.86 ± 0.32
